Experimental data taken from PubChem BioAssay AID1745853 (National Center for Advancing Translational Sciences (NCATS), 2022).
Some of the results follow. These are further read-outs of the screen, such as a control signal, another cell line or another target. No call is given for them.

Experiments:
Experiment in all cases: Primary Screen for Target Class Profiling of Small Molecule Inhibitors of Methyltransferases
[1] = molecular target: Glycine N-methyltransferase (Homo sapiens) (UniProt Q14749); details: purified enzyme, MTase-Glo SAH luminescence; measured here: GNMT inhibition; at 40 µM; stronger effect = lower value
Method in brief: (§1)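 Each enzyme was reacted with SAM and its substrate, with compounds tested once at 40 uM; SAH formed was read by MTase-Glo luminescence.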

[2] = molecular target: Guanidinoacetate N-methyltransferase (Homo sapiens) (UniProt Q14353); details: purified enzyme, MTase-Glo SAH luminescence; measured here: GAMT inhibition; at 40 µM; stronger effect = lower value
Method in brief: as §1

[3] = molecular target: Histamine N-methyltransferase (Homo sapiens) (UniProt P50135); details: purified enzyme, MTase-Glo SAH luminescence; measured here: HNMT inhibition; at 40 µM; stronger effect = lower value
Method in brief: as §1

[4] = molecular target: Nicotinamide N-methyltransferase (Homo sapiens) (UniProt P40261); details: purified enzyme, MTase-Glo SAH luminescence; measured here: NNMT inhibition; at 40 µM; stronger effect = lower value
Method in brief: as §1

[5] = molecular target: Phenylethanolamine N-methyltransferase (Homo sapiens) (UniProt P11086); details: purified enzyme, MTase-Glo SAH luminescence; measured here: PNMT inhibition; at 40 µM; stronger effect = lower value
Method in brief: as §1
On the % scale 0 is the no-effect control and ±100 the full control effect.

SMILES	activity change, negative = inhibition [1] [%]	activity change, negative = inhibition [2] [%]	activity change, negative = inhibition [3] [%]	activity change, negative = inhibition [4] [%]	activity change, negative = inhibition [5] [%]
CCc1ccc(S(=O)(=O)c2nnn3c2nc(N)c2cc(Cl)ccc23)cc1	-13.4	0.089	-3.33	-4.03	-0.867
Cc1ccc(N2C(=O)c3cc(C(C)(C)C)nn3CC2(C)C(=O)NCc2ccccc2)cc1 (stereo not given)	5.03	3.81	3.69	-0.249	0.932
CCC(C)NC(=O)c1ccc2c(=O)n(CC(C)C)c3nn(CC(=O)N(C)c4ccccc4)c(=O)n3c2c1 (stereo not given)	2.44	0	11.5	-0.684	8.91
CC(C)Cn1c(=O)c2ccccc2n2c(=O)n(CC(=O)c3ccc(Br)cc3)nc12	9.94	2.22	13	10.4	9.49
CCc1ccc(C2c3cccn3-c3sc4c(c3CN2C(=O)Nc2ccc(OC)cc2)CCCC4)cc1 (stereo not given)	-1.75	0	10.5	3.83	5.96
CC(C)CC(=O)O[C@@H]1OC=C(CO[C@@H]2O[C@H](CO)[C@@H](O)[C@H](O)[C@H]2O)[C@H]2[C@@H]3O[C@H]3[C@@](O)(CO)[C@@H]12	5	9.12	7.18	-2.27	7
O=C1COc2ccc(N3CCOCC3)nc2CN1Cc1ccc(F)cc1	-5.56	-0.26	-3.31	-5.25	-3.03
Cc1onc(-c2c(Cl)cccc2Cl)c1CC(=O)NCc1ccc(OCC(F)(F)F)nc1	-2.53	-2.18	8.36	-17.8	-2.63
COc1ccccc1C(=O)N1CCC2(CC1)NC(=O)c1ccccc1O2	-7.09	-9.02	-2.44	-16.8	-20.9
COc1ccc(N2CCN(C(=O)c3ccc4c(=O)nc5c(-c6ccccc6F)n[nH]n5c4c3)CC2)cc1	-14.8	0.053	-0.764	-5.29	-3.57
O=C(c1cccc(OC(F)F)c1)N1CC[C@H](N2CCOCC2)[C@H](CCCO)C1	-4.28	-11.3	-1.53	-13.3	-5.96
C=C(CCO)C(=O)OCC1OCC(OC(=O)C(=C)CCO[C@@H]2O[C@H](CO)[C@@H](O)[C@H](O)[C@H]2O)C(O)C1O (stereo not given in full)	9.64	7.91	10.4	-1.24	5.93
Cc1ccc(CNC(=O)C2(C)Cn3nc(C(=O)NCc4cccs4)cc3C(=O)N2C)cc1 (stereo not given)	4.9	0	1.28	2.78	3.94
CC(C)N1C(=O)C2(CCCCC2)C1C(=O)NCc1nc2ccccc2n1C (stereo not given)	-1.27	-0.868	1.21	-5.09	-0.418
